Among all 410,000 compounds or so, about 6,400 (1.6%) were called active. This list was built around the results that the source calls inconclusive (neither active nor inactive); the mix of calls is not that of the screen. Calls follow the shape of the dose curve; as a rule, active = well fitted inhibition curve with a large enough effect; inconclusive = small, poorly fitted or top-dose-only effect; inactive = no such curve, though single readings can be large or run the other way. No potency is given beside an inconclusive call; the fits are too rough.
target: Glucagon-like peptide 1 receptor (Homo sapiens) (UniProt P43220); test: qHTS of GLP-1 Receptor Inverse Agonists (Inhibition Mode); settings: HEK293 GLP-1R CRE-luciferase, luminescence, 24 h, GLP-1R form is constitutively active; activity change, negative = inhibition: at 38.3 µM (top of the series) unless noted; also: nearly all actives have a fitted effect of over 55% in size
Sequence of UniProt P43220 (P43220 whole entry, looked up): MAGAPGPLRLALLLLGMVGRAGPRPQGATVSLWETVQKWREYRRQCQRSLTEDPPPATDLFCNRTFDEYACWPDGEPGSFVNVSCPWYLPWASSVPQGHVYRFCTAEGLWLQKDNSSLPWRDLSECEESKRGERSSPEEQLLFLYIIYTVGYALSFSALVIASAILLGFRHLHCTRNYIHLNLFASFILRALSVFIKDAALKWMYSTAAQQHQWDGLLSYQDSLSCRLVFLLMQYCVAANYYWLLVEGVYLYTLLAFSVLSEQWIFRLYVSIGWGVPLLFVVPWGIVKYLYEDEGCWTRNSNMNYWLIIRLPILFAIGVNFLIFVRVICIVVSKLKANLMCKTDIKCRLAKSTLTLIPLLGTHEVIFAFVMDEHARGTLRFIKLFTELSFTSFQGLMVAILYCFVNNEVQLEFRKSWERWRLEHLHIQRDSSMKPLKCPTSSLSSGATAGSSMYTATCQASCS
In short: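 Inverse agonists were sought by their lowering of basal cAMP reporter luciferase output in HEK293 cells stably carrying constitutively active human GLP-1R, after 24 h compound treatment.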
% is scaled to controls: 0 for no effect and ±100 for the full control effect; potency is read from the fitted curve at half-maximal effect; tags tell the direction and shape of the fitted curve.

| Compound | Potency | activity change, negative = inhibition |
| --- | --- | --- |
| COC(=O)c1ccc(NC(=O)C(=O)c2cccn2C)cc1 | inconclusive [inhibitor, single point] |  |
| COc1cc(-c2cc(NC(C)=O)c3ncc(-c4ccc(F)cc4)n3c2)cc(OC)c1OC | inconclusive [inhibitor, single point] |  |
| CCN(CC)CCNC(=O)/C(=C/c1cn(C)c2ccccc12)NC(=O)c1ccc(OC)c(OC)c1 | inconclusive [inhibitor, partial curve] |  |
| COc1ccc2oc(=N)c(C(=O)Nc3ccccc3Cl)cc2c1 |  | inactive: 11.6% |
| CCCSc1ccc([C@@H]2[C@@H]3C(=O)N(CC)C(=O)[C@@H]3[C@]3(C(=O)OC)CCCCN23)cc1OC | inconclusive [inhibitor, single point] |  |
| C/C(CC1CC(C)(C)OC1=O)=N/Nc1nc(-c2ccccc2)cs1 (stereo not given) | inconclusive [inhibitor, single point] |  |
| Cc1ccccc1-c1cc2nc(Oc3ccc4c(c3)OCO4)n(C)c(=O)c2s1 | inconclusive [inhibitor, single point] |  |
| O=C(Oc1ccccc1F)c1nc(SCc2ccccc2F)ncc1Cl |  | inactive: 4.07% |
| CC(C)CNC(C(=O)Nc1ccc([N+](=O)[O-])cc1Br)c1ccccc1 (stereo not given) | inconclusive [inhibitor, partial curve, poor fit] |  |
| CC(C)CNC(=O)C(=O)Nc1ccc2c(c1)N(S(=O)(=O)c1cccs1)CCC2 | inconclusive [inhibitor, single point] |  |
| Cc1cc(Cl)ccc1OC(C)C(=O)Nc1cccc(S(=O)(=O)N2CCOCC2)c1 (stereo not given) | inconclusive [inhibitor, single point] |  |
| NS(=O)(=O)c1cccc(NC(=O)COC(=O)C2(c3cccc(F)c3)CCCC2)c1 | inconclusive [inhibitor, single point] |  |
| Cc1ccc(C(c2nnnn2CC2CCCO2)N2CCN(c3cccc(C)c3C)CC2)cc1 (stereo not given) | inconclusive [inhibitor, partial curve, poor fit] |  |
| Cn1cc(CN2CCCC(C(=O)Nc3cccc(-n4cccn4)c3)C2)cn1 (stereo not given) |  | inactive: -24.4% |
| COc1ccc(OC)c(C(=O)c2coc3ccc(OC)cc23)c1 | inconclusive [inhibitor, partial curve, poor fit] |  |
| CCCC1(c2ccccc2)NC(=O)N(CC(=O)NCc2ccc(C)cc2)C1=O (stereo not given) |  | inconclusive: -55.2% [inhibitor] |
| Cc1c(C#N)c(N)nc2c3c(sc12)NC(=O)CC3c1ccc(F)cc1 (stereo not given) |  | inactive: 57.9% |
| O=C(CSc1nc2ccccc2s1)N/N=C/c1ccccc1C(=O)O | inconclusive [inhibitor, full curve, poor fit] |  |
| O=C1c2ccccc2C(Nc2ccc(S(=O)(=O)N3CCCCC3)cc2)N1c1ccccn1 (stereo not given) | inconclusive [inhibitor, single point] |  |
| COCCN1CCC(CNCc2cn[nH]c2-c2ccc(C)c(C)c2)C1 (stereo not given) | inconclusive [inhibitor, partial curve, poor fit] |  |

| Compound | Potency | activity change, negative = inhibition |
| --- | --- | --- |
| Cc1ccc(NC(=O)C2CCN(S(=O)(=O)c3ccc(C(C)(C)C)cc3)CC2)cc1S(=O)(=O)N1CCOCC1 | inconclusive [inhibitor, single point] |  |
| COc1ccc(C(C[N+](=O)[O-])c2c(-c3ccccc3)cc3ccccn23)c(OC)c1 (stereo not given) | inconclusive [inhibitor, partial curve, poor fit] |  |
| O=C(OCCN1C(=O)c2cccc3c(N4CCOCC4)ccc(c23)C1=O)c1ccccc1Cl | inconclusive [inhibitor, partial curve, poor fit] |  |
| CC(C)C(NC(=O)CSCc1ccc([N+](=O)[O-])cc1)C(C)C | inconclusive [inhibitor, single point] |  |
| Cc1cccc(NC(=O)CSc2nc3nc4c(cc3c(=O)n2-c2ccccc2)CCCC4)c1 | inconclusive [inhibitor, partial curve, poor fit] |  |
| O=C(C[C@@H]1C/C=C/CC[C@H](Cc2ccc(F)cc2)C(=O)OC[C@@H](Cc2ccccc2)NC1=O)N[C@H](CO)Cc1ccccc1 | inconclusive [inhibitor, single point] |  |
| OCCC1CN(Cc2ccc(C(F)(F)F)cc2)CCN1Cc1ccccc1 (stereo not given) | inconclusive [inhibitor, single point] |  |
| Cc1cc(C)c2oc(C(=O)Nc3ccc(S(=O)(=O)Nc4ncccn4)cc3)cc(=O)c2c1 |  | inactive: 23.1% |
| COCCS(=O)(=O)N(Cc1ccc(Br)cc1)[C@@H](C)C(=O)OC |  | inactive: 2.7% |
| COC(=O)c1ccc(NC(=S)NCCc2ccccc2)cc1 | inconclusive [inhibitor, single point] |  |
| CCS(=O)(=O)N1CCN(CC2CC3C=CC2C3)CC1 (stereo not given) |  | inactive: -2.16% |
| CCc1ccc(S(=O)(=O)NCc2cccs2)cc1 | inconclusive [inhibitor, single point] |  |
| Cc1ccnc(NC(=O)Nc2cccc(F)c2)c1 | inconclusive [inhibitor, single point] |  |
| FC(F)(F)c1nc2ccccc2nc1N/N=C/c1ccc(Cl)cc1 | inconclusive [inhibitor, single point] |  |
| Cc1ccccc1-c1csc(C(O)c2cccc(Cl)c2)n1 (stereo not given) | inconclusive [inhibitor, single point] |  |
| O=C(COc1ccccc1Cl)Nc1cc(NC(=O)COc2ccccc2Cl)cc(C(=O)O)c1 | inconclusive [inhibitor, partial curve, poor fit] |  |
| Cc1ccc(C)c(OCc2cc(C(=O)N3CCN(C(=O)c4ccco4)CC3)no2)c1 |  | inactive: -25.1% |
| c1ccc(-c2nc(NCc3cccnc3)c3oc4ccccc4c3n2)cc1 | inconclusive [inhibitor, single point] |  |
| O=C1c2cccc3c(O)ccc(c23)C(=O)N1c1ccc(Cl)cc1 | inconclusive [inhibitor, partial curve, poor fit] |  |
| CN(C)c1nc(NCc2ccccc2)nc(N/N=C/c2cccc(Br)c2)n1 | inconclusive [inhibitor, single point] |  |
